Experimental data reported in PubChem BioAssay AID686979 (National Center for Advancing Translational Sciences (NCATS), 2013).
Hit rate of the full screen: of about 420,000 compounds, about 50,000 (12%) were called active. The shares of active, inactive and inconclusive entries below differ from those in the screen. Calls come from the whole dose curve; as a rule, active = well fitted inhibition curve with a large enough effect; inconclusive = small, poorly fitted or top-dose-only effect; inactive = flat fitted curve, though single readings scatter. Potencies of inconclusive entries are left out as doubtful fits.

Test: qHTS for Inhibitors of human tyrosyl-DNA phosphodiesterase 1 (TDP1): qHTS in cells in presence of CPT; note: nearly all actives have a fitted effect of over 55% in size
Conditions: chicken DT40 Tdp1-/-;hTDP1 cells + 20 nM CPT, ATP luminescence, 48 h; activity change, negative = growth inhibition: at 46.2 µM (top of the series) unless noted
How it was run: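 Chicken DT40 Tdp1-/- cells stably complemented with human TDP1 were seeded at 400 cells/well in medium containing 20 nM camptothecin, exposed to pin-transferred compounds, and grown at 37 °C for at least 48 hr. Viability was read as ATP luminescence.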
% is set by controls: 0 for no effect and ±100 for the full control effect; potency is the fitted concentration of half-maximal effect; tags give direction and shape of the fitted curve.

| SMILES | activity change, negative = growth inhibition | Potency |
| --- | --- | --- |
| CCCCNC(=S)Nc1ccc(SC(F)F)cc1 | inactive: -12.3% | – |
| S=C(Nc1ccccc1Cl)N(Cc1cccnc1)Cc1ccco1 | inactive: 2.65% | – |
| Nc1cc(-c2ccc(Br)cc2)[nH]n1 | – | inconclusive [inhibitor, partial curve] |
| CCN(CC)S(=O)(=O)c1ccc(N=NC2=C(O)CC(C)(C)CC2=O)cc1 | inconclusive: -31.4% [inhibitor] | – |
| CCOc1ccccc1N1CCN(C(=O)c2ccccc2SCC(=O)N2CCCC2)CC1 | – | inconclusive [inhibitor, single point] |
| COc1cc(C2CC(=O)Oc3c(C(CCN4CCN(c5ccccc5)CC4)c4ccc(N(C)C)cc4)c(OC)cc(OC)c32)cc(OC)c1OC (stereo unspecified) | – | inconclusive [inhibitor, single point] |
| Cc1cc(C)cc(N2CCCn3c2nc2c3c(=O)n(CC(=O)OCc3ccccc3)c(=O)n2C)c1 | – | inconclusive [inhibitor, partial curve] |
| CC(=O)OCCc1c2ccccc2c(CCCN(C)C)c2ccccc12 | – | inconclusive [inhibitor, single point] |
| CC(=O)Nc1cc(-c2cccc(NS(C)(=O)=O)c2)cn2c(-c3ccc(F)c(Cl)c3)cnc12 | – | inconclusive [inhibitor, single point] |
| O=C(NCc1cccnc1)c1cc(C2CCCCN2C(=O)c2ccc3ccccc3c2)on1 (stereo unspecified) | – | inconclusive [inhibitor, single point] |
| O=C(CN1CCOCC1)NNc1nc(-c2ccccc2)c2cc(Br)ccc2n1 | – | inconclusive [inhibitor, single point] |
| O=C(CN1C(=O)CSc2ccc(S(=O)(=O)N3CCCC3)cc21)Nc1cccc(Cl)c1 | – | inconclusive [inhibitor, single point] |
| COc1cccc(-c2nnc3sc(-c4ccccc4)nn23)c1 | – | inconclusive [inhibitor, single point] |
| CCN(CC)CCn1c2c(c(SCC(=O)Nc3nc4ccc(C)cc4s3)nc1=O)CCC2 | – | active: 6.51 µM |
| Cc1cccc(C(=O)Nc2ccc(NC(=O)c3ccccc3)cc2)c1 | – | inconclusive [inhibitor, single point] |
| CSc1ccc(CN2CCC2(C)C(=O)NC2CCN(Cc3ccccc3)CC2)cc1 (stereo unspecified) | – | active: 25.9 µM |
| Cc1ccc(N/N=C/C=C/c2ccco2)cc1 | inactive: 2.23% | – |
| Cc1c(N=C2Nc3cccc4cccc2c34)c(=O)n(-c2ccccc2)n1C | inconclusive: -39% [inhibitor] | inconclusive [inhibitor, single point] |
| O=C(NCCc1ccc(Cl)cc1)c1cc(S(=O)(=O)N2CCCCC2)c[nH]1 | – | active: 23.1 µM |
| COc1ccc(C2=C(C=O)Cc3ccccc3O2)cc1 | – | inconclusive [inhibitor, single point] |
| CCCCN(C(=O)CSCc1ccc(C)cc1)c1c(N)n(Cc2ccccc2)c(=O)[nH]c1=O | – | inconclusive [inhibitor, single point] |
| CC1CC(C)CN(C(=O)C2CCC(CNS(=O)(=O)c3ccccc3)CC2)C1 (stereo unspecified) | – | inconclusive [inhibitor, single point] |
| COc1ccc(NC(=O)c2cc(-c3ccc(C)c(C)c3O)n[nH]2)cc1Cl | – | inconclusive [inhibitor, single point] |
| Cc1cc(CNC(=O)COc2ccccc2)c2ccccc2n1 | inactive: -24.9% | – |

| SMILES | activity change, negative = growth inhibition | Potency |
| --- | --- | --- |
| Nc1c(NCCC2=CCCCC2)c(=O)[nH]c(=O)n1Cc1ccccc1 | – | active: 25.9 µM |
| CN(C)C(CNC(=O)CCc1nc2cc(Cl)ccc2n(Cc2ccccc2)c1=O)c1ccccc1 (stereo unspecified) | – | inconclusive [inhibitor, single point] |
| CC(=O)c1cccc(-c2ccnc3c2CC(C(=O)Nc2ccc4c(c2)OCO4)O3)c1 (stereo unspecified) | – | active: 4.11 µM |
| O=S(=O)(c1ccc(F)c(F)c1F)N1CCN(C(=S)NCc2ccccc2)CC1 | – | inconclusive [inhibitor, single point] |
| Cc1ccccc1C(=O)O/N=C/c1c(N2CCOCC2)n(C)c2ccccc12 | – | active: 1.46 µM |
| COc1ccccc1NC(=O)C1=C(C)Nc2c(C(=O)Nc3cccc(C)c3)cnn2C1c1ccccc1Cl (stereo unspecified) | – | inconclusive [inhibitor, single point] |
| CCCC1NC(C(=O)O)Cc2c1[nH]c1ccccc21 (stereo unspecified) | – | inconclusive [inhibitor, single point] |
| COc1ccc(Cl)cc1NC(=O)c1c(NCc2cccnc2)sc2c1CCC(C)C2 (stereo unspecified) | – | active: 3.66 µM |
| CC1CCCCN1CCCNC(=O)CN1C(=O)c2cccnc2Oc2ccccc21 (stereo unspecified) | – | inactive |
| Cc1ccc(Cl)cc1N1CCN(S(=O)(=O)c2ccc3c(c2)NC(=O)C(C)C(=O)N3)CC1 (stereo unspecified) | – | inconclusive [inhibitor, single point] |
| c1ccc2c(c1)CCN(c1nc3cc4c(cc3s1)OCCO4)C2 | – | active: 10.3 µM |
| CCCCNC(=O)C1C(c2ccc(OC)cc2)=Nc2ccccc2N1C(=O)c1ccc2ncccc2c1 (stereo unspecified) | – | inconclusive [inhibitor, partial curve] |
| CCCC(=O)N1CCN(c2ccc(NC(=O)c3cc4ccccc4o3)cc2Cl)CC1 | – | active: 3.26 µM |
| O=C(NCCCN1CCCC1=O)c1ccc(S(=O)(=O)Nc2cccc(C(F)(F)F)c2)cc1 | – | inconclusive [inhibitor, single point] |
| COc1ccc(/C=C/C(=O)NCC2Cc3cc(Cl)cc(-c4ncccn4)c3O2)cc1 (stereo unspecified) | inactive: -5.94% | – |
| CCCCN(CC)C(=O)C1CCCN(c2ncnc3onc(C)c23)C1 (stereo unspecified) | – | active: 18.4 µM |
| CCOc1ccccc1/C=C(/NC(=O)c1ccccc1)C(=O)N1CCCCC1 | – | inconclusive [inhibitor, single point] |
| CCN1CCN(c2ccc(S(=O)(=O)N3CCOCC3)cc2NC(=O)/C=C/c2ccc(C)cc2)CC1 | inactive: -6.38% | – |
| CCN1CCN(C(c2ccc(SC)cc2)c2c(O)cc(C)n(CCOC)c2=O)CC1 (stereo unspecified) | inactive: -17% | – |
| O=C1NC[C@@H](CCCCN2C[C@H](Cc3ccc(O)cc3)N(CCC3CCCCC3)C(=O)C2=O)N(CCC2CCCCC2)C1=O | inactive: 10.4% | – |
| CCN(CC)c1ccc(-c2nnc(SCC(=O)NCc3ccco3)n2C)cc1 | – | inconclusive [inhibitor, single point] |
| O=C(Cc1ccc(NC(=O)C2CCN(C(=O)C3CC3)CC2)cc1)Nc1cccc(C(=O)N2CCCC2)c1 | inactive: 5.92% | – |
| CC(C)CC(=O)N1CCN(C(=O)c2ccc(F)cc2)CC1 | inactive: -10.5% | – |
| Cc1ccc(CNC(=O)CCS(=O)(=O)Cc2ccc(C)cc2)cc1 | inactive: -2.96% | – |

| SMILES | activity change, negative = growth inhibition | Potency |
| --- | --- | --- |
| CCCCNCCCOc1ccc(C)cc1Br | – | active: 18.4 µM |
| COc1ccc(-c2nc3n(n2)C(c2ccc(OC)c(OC)c2)C(C(=O)Nc2cccnc2)=C(C)N3)cc1 (stereo unspecified) | inactive: -11.5% | – |
| Clc1ccc(OCCCCCN2CCCC2)c(Br)c1 | – | inconclusive [inhibitor, single point] |
| CC1=C(C(=O)N(C)C)CC(CC(=O)NC2CCCC2)C(=O)N1CCC1=CCCCC1 (stereo unspecified) | inactive: -1.64% | – |
| COc1cc(NC(=O)CCC2CCCC2)cc(-n2cnnn2)c1 | – | inconclusive [inhibitor, single point] |
| COc1cc(C)ccc1OCCOCCOc1ccccc1Br | – | inconclusive [inhibitor, single point] |
| CCCCCC(=O)Nc1cc(S(=O)(=O)N2CCCCC2)ccc1N1CCCCC1 | – | inconclusive [inhibitor, single point] |
| CCOc1ccc(/C=N/NC(=O)c2ccccc2C)cc1CN1CC2CC(C1)c1cccc(=O)n1C2 (stereo unspecified) | – | inconclusive [inhibitor, single point] |
| CCOC(=O)c1ccc(CN(Cc2ccc(Br)cc2)S(=O)(=O)c2cccc(Cl)c2C)cc1 | – | inconclusive [inhibitor, single point] |
| Cc1nc(C)c(-c2csc(Nc3ccccn3)n2)s1 | inactive: -59.5% | – |
| Cc1c(C(=O)N2CCCCC2)c(S(=O)(=O)N2CCC(C)CC2)c(C)n1C | – | inconclusive [inhibitor, single point] |
| CO[C@H]1C=CO[C@@]2(C)Oc3c(C)c(O)c4c(O)c(c(/C=N/N5CCN(C6CCCC6)CC5)c(O)c4c3C2=O)NC(=O)/C(C)=C\C=C[C@H](C)[C@H](O)[C@@H](C)[C@@H](O)[C@@H](C)[C@H](OC(C)=O)[C@@H]1C | – | active: 4.73 µM |
| COCCn1c(SCC(=O)Nc2cccc(S(N)(=O)=O)c2)nc2cc(Cl)ccc2c1=O | – | active: 14.6 µM |
| CCOc1ccc(Br)cc1C(=O)Nc1ccc(C(=O)NCC(C)C)cc1 | – | active: 10.3 µM |
| CC(=O)c1ccc2c(c1)c(C#N)c1ccccc1[n+]2[O-] | – | active: 13 µM |
| N#Cc1ccc(-c2nc3ccc(Br)cc3c(=O)n2O)cc1 | – | inconclusive [inhibitor, single point] |
| CCN1CCN(C(=O)CS(=O)(=O)Cc2nc(-c3cccc(OC)c3)oc2C)CC1 | inactive: -14.7% | – |
| CCOC(=O)c1c(C)[nH]c(C)c1S(=O)(=O)NCC(=O)NCc1cccc(C)c1 | inconclusive: -30.2% [inhibitor] | – |
| CCOC(=O)Nc1nc(-c2ccccc2)c(C(=O)c2ccccc2)s1 | – | active: 0.58 µM |
| COc1cc(OC)c2c(-c3ccccc3)cc(=O)oc2c1C(CCN1CCCCC1)c1ccc2c(c1)OCO2 (stereo unspecified) | – | active: 9.2 µM |
| Cc1ccsc1/C=N/NC(=O)Cc1ccc(Cl)cc1 | – | inconclusive [inhibitor, single point] |
| O=c1cc(-c2ccc(F)cc2)nc(SCc2nc(-c3ccc(Cl)cc3)no2)[nH]1 | inactive: -17.2% | – |
